Experimental data published in the supplement of paper PMC10369915.
This is one part of the list. Cut-off read from the data, not from the text of the source: active = 3.2 or more and inactive = the rest. Only a few entries rise above the background.

Key:
Assay in all cases: enrichment score (SH2-bound / input frequency) (ratio); bacterial display of known human phosphotyrosine sites (pTyr-Var adds point mutants) read by sequencing; higher = stronger binding; tyrosines were phosphorylated by kinases first
Settings in all cases: peptide library: pTyr-Var
SHP2 C-SH2 domain E139D = target: SHP2 C-SH2 domain E139D
[1] = target: SHP2 C-SH2 domain wild-type
SHP2 N-SH2 domain L43F = target: SHP2 N-SH2 domain L43F
SHP2 N-SH2 domain T42A = target: SHP2 N-SH2 domain T42A
SHP2 N-SH2 domain T52S = target: SHP2 N-SH2 domain T52S
[2] = target: SHP2 N-SH2 domain wild-type

Measured: enrichment score
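Note: displayed peptides selected on beads carrying the immobilized SH2 domain, with library peptides lacking any tyrosine serving as negative controls.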

VIGRMYDFHVL [RPF2_Y109_YF]
inactive: SHP2 C-SH2 domain E139D 2.2 | [1] 1.64 | SHP2 N-SH2 domain L43F 3.11 | SHP2 N-SH2 domain T42A 1.81 | SHP2 N-SH2 domain T52S 2.82 | [2] 1.67

ALKKPYGVLYK [RPF2_Y59]
inactive: SHP2 C-SH2 domain E139D 2.34 | [1] 2.05 | SHP2 N-SH2 domain L43F 2.1 | SHP2 N-SH2 domain T42A 2.02 | SHP2 N-SH2 domain T52S 2.55 | [2] 2.56

ALKKPYSVLFK [RPF2_Y59_G60S_YF]
inactive: SHP2 C-SH2 domain E139D 2.62 | [1] 2.86 | SHP2 N-SH2 domain L43F 2.77 | SHP2 N-SH2 domain T42A 2.29 | SHP2 N-SH2 domain T52S 2.6 | [2] 2

ALKKPYGVLFK [RPF2_Y59_YF]
inactive: SHP2 C-SH2 domain E139D 2.67 | [1] 2.59 | SHP2 N-SH2 domain L43F 2.73 | SHP2 N-SH2 domain T42A 2.33 | SHP2 N-SH2 domain T52S 2.84 | [2] 2.38

SPFAVYLFFTF [RPGRIP1_Y826_R827L_YF]
inactive: SHP2 C-SH2 domain E139D 0.449 | [1] 0.586 | SHP2 N-SH2 domain L43F 0.532 | SHP2 N-SH2 domain T42A 0.612 | SHP2 N-SH2 domain T52S 0.646 | [2] 0.71

ASNNPYFRDQA [RPGRIP1_Y846]
inactive: SHP2 C-SH2 domain E139D 0.633 | [1] 0.454 | SHP2 N-SH2 domain L43F 0.613 | SHP2 N-SH2 domain T42A 0.529 | SHP2 N-SH2 domain T52S 0.577 | [2] 0.552

PMFTKYGNSLL [RPGRIP1L_Y196]
inactive: SHP2 C-SH2 domain E139D 1.18 | [1] 0.787 | SHP2 N-SH2 domain L43F 0.771 | SHP2 N-SH2 domain T42A 1.07 | SHP2 N-SH2 domain T52S 1.03 | [2] 1.01

ICANKYMVKSC [RPL10_Y75]
inactive: SHP2 C-SH2 domain E139D 2.43 | [1] 2.11 | SHP2 N-SH2 domain L43F 2.74 | SHP2 N-SH2 domain T42A 2.26 | SHP2 N-SH2 domain T52S 2.36 | [2] 2.24

RRGTRYMFSRP [RPL21_Y13]
inactive: SHP2 C-SH2 domain E139D 0.205 | [1] 0.189 | SHP2 N-SH2 domain L43F 0.218 | SHP2 N-SH2 domain T42A 0.119 | SHP2 N-SH2 domain T52S 0.256 | [2] 0.258

VPLATYMQIYK [RPL21_Y30_R32Q]
inactive: SHP2 C-SH2 domain E139D 0.96 | [1] 0.849 | SHP2 N-SH2 domain L43F 1.07 | SHP2 N-SH2 domain T42A 1.06 | SHP2 N-SH2 domain T52S 1 | [2] 0.735

YKGKKYKPLDL [RPL35_Y78]
inactive: SHP2 C-SH2 domain E139D 0.569 | [1] 0.748 | SHP2 N-SH2 domain L43F 0.541 | SHP2 N-SH2 domain T42A 0.477 | SHP2 N-SH2 domain T52S 0.71 | [2] 0.802

YKGKNYKPLDL [RPL35_Y78_K77N]
inactive: SHP2 C-SH2 domain E139D 0.911 | [1] 1.09 | SHP2 N-SH2 domain L43F 0.801 | SHP2 N-SH2 domain T42A 0.955 | SHP2 N-SH2 domain T52S 0.931 | [2] 1.28

KIEGIYARDET [RPL35A_Y34_V33I]
inactive: SHP2 C-SH2 domain E139D 0.795 | [1] 0.812 | SHP2 N-SH2 domain L43F 1.7 | SHP2 N-SH2 domain T42A 0.832 | SHP2 N-SH2 domain T52S 0.951 | [2] 0.931

QNVADYMRFLM [RPL5_Y207_YF]
inactive: SHP2 C-SH2 domain E139D 1.82 | [1] 1.26 | SHP2 N-SH2 domain L43F 1.49 | SHP2 N-SH2 domain T42A 1.51 | SHP2 N-SH2 domain T52S 1.8 | [2] 2.03

KELALYDENWF [RPS19_Y48_P47L]
inactive: SHP2 C-SH2 domain E139D 1.01 | [1] 0.984 | SHP2 N-SH2 domain L43F 1.04 | SHP2 N-SH2 domain T42A 0.847 | SHP2 N-SH2 domain T52S 1.13 | [2] 1.29

KELAPYDENRF [RPS19_Y48_W52R]
inactive: SHP2 C-SH2 domain E139D 0.626 | [1] 0.647 | SHP2 N-SH2 domain L43F 0.685 | SHP2 N-SH2 domain T42A 0.719 | SHP2 N-SH2 domain T52S 0.689 | [2] 0.874

DENWFYTRAAS [RPS19_Y54]
inactive: SHP2 C-SH2 domain E139D 0.918 | [1] 0.581 | SHP2 N-SH2 domain L43F 0.853 | SHP2 N-SH2 domain T42A 0.732 | SHP2 N-SH2 domain T52S 0.707 | [2] 0.726

DENWFYTRAAF [RPS19_Y54_S59F]
inactive: SHP2 C-SH2 domain E139D 0.896 | [1] 0.879 | SHP2 N-SH2 domain L43F 0.702 | SHP2 N-SH2 domain T42A 0.881 | SHP2 N-SH2 domain T52S 0.815 | [2] 0.692

HEKKAYSFCGT [RPS6KA3_Y226]
inactive: SHP2 C-SH2 domain E139D 1.03 | [1] 0.797 | SHP2 N-SH2 domain L43F 0.761 | SHP2 N-SH2 domain T42A 0.785 | SHP2 N-SH2 domain T52S 0.587 | [2] 0.787
